Measurements reported in publication PMC4538830.
Results are given in words; binding and its absence hold for the method and conditions named. For some of these results: Binding seen in cells or lysates may run through a third protein. Some binding calls cover weakened binding; strength is not graded here. Where a sequence is shown, tags or fusion partners need not be part of it.

Sequences of proteins named here, by UniProt entry; tags and fusion partners are left off. Residues count along the entry.
UniProt Q99KP6: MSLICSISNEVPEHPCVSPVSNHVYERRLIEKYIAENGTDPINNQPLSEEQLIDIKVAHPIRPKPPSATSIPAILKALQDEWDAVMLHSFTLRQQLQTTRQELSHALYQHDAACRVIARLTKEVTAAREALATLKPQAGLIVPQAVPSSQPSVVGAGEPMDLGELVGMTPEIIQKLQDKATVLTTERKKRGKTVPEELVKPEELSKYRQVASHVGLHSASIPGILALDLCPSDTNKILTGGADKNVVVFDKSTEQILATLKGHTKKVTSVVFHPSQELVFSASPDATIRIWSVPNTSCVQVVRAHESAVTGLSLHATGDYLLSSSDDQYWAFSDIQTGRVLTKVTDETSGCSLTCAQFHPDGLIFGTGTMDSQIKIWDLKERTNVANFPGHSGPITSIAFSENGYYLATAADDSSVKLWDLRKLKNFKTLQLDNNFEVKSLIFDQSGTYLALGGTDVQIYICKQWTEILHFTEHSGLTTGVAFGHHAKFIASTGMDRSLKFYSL
UniProt Q6A068: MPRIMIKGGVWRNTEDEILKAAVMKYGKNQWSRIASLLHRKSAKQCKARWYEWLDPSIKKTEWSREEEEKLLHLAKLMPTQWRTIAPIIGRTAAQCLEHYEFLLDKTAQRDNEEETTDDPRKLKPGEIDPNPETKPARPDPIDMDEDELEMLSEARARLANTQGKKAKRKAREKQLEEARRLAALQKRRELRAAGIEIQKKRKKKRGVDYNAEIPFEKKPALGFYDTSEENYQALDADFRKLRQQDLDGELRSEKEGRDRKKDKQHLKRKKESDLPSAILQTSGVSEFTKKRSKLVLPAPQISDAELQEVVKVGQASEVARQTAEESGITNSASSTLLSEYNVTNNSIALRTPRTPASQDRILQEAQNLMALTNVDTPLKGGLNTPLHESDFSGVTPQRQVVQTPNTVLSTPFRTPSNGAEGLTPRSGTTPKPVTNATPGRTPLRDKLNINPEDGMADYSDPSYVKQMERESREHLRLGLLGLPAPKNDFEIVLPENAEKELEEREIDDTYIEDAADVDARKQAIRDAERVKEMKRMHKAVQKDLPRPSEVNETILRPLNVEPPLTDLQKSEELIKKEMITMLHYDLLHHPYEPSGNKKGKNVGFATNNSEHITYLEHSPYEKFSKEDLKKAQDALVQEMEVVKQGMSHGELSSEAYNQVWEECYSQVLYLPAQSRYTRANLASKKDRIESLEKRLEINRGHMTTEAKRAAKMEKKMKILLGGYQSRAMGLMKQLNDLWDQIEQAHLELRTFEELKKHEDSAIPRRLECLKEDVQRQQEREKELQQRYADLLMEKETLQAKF
UniProt Q99459, residues 1-195: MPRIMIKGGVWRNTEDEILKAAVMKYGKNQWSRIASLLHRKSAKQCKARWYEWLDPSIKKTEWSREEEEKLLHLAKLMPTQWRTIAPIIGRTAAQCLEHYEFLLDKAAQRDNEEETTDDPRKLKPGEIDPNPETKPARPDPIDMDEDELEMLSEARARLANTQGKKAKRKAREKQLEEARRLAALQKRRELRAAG

Experiments:
[1] = target: T1, human HA-CWC15 (human) (UniProt Q9P013); assay: co-IP; anti-HA resin, 1 h at 4°C, triton lysis buffer with benzonase; lysates of LPS and IL-4 stimulated mouse B cells transduced with human HA-CWC15; control (Ctnnbl1+/flx) and CTNNBL1-deficient (Ctnnbl1−/flx) cells; western blot
T1 sequence: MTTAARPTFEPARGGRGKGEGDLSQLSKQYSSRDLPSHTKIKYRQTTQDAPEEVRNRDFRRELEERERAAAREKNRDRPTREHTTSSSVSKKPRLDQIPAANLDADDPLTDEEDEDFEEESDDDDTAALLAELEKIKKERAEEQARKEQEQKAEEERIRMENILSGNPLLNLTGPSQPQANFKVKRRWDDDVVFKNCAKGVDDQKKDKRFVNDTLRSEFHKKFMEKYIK

[2] = target: T2, GST-CWC15[80–229] (human) (UniProt Q9P013); assay: pull-down; GST-CWC15[80–229] as bait on glutathione Sepharose with MBP-CDC5L[1–195] at increasing potassium acetate (0 to 1 M); both purified
T2 sequence: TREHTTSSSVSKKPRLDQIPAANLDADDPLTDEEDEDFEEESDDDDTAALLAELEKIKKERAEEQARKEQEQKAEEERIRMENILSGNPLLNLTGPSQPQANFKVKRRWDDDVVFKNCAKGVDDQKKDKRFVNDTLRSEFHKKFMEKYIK

[3] = target: T2, GST-CWC15[80–229] (human); assay: condition: only 0.6 mM KAc (so in the source) or higher, with His-CTNNBL1[77–563] present; pull-down; GST-CWC15[80–229] as bait on glutathione Sepharose with both MBP-CDC5L[1–195] and His-CTNNBL1[77–563] at increasing potassium acetate (0 to 1 M); both purified

Substance: mouse PRPF19 (from UniProt Q99KP6 1-504)
- binding [1]: binds

Substance: mouse CDC5L (from UniProt Q6A068 1-802)
- binding [1]: binds

Substance: MBP-CDC5L[1–195] (from UniProt Q99459 1-195) (domain or fragment)
- binding [2]: binds weakly
- binding [3]: no binding
